Data taken from the antibiotic and cytotoxicity screens of Wong et al. (2023).
The list shows a part of the results.

How the values were obtained:
HSkMC = human skeletal muscle cells; test: cytotoxicity call (relative viability < 0.9); conditions: 10 µM
HepG2 = test: cytotoxicity call (relative viability < 0.9); conditions: 10 µM
S. aureus RN4220 = test: growth inhibition call (relative growth <= 0.2); conditions: 50 µM

| SMILES | cytotoxicity call (HSkMC) | cytotoxicity call (HepG2) | growth inhibition call (S. aureus RN4220) |
| --- | --- | --- | --- |
| CCC(=O)Nc1ccc2c(c1)OC[C@H](C)N(C(=O)CN1CCOCC1)C[C@H](C)[C@H](OC)CN(C)C2=O | inactive | inactive | inactive |
| CCCCOC(=O)c1ccc(N)cc1 | inactive | inactive | inactive |
| Cc1ccc(S(=O)(=O)N(C)C[C@@H]2Oc3ccc(NC(=O)C4CC4)cc3CC(=O)N([C@H](C)CO)C[C@H]2C)cc1 | inactive | inactive | inactive |
| C[C@@H]1CCCCO[C@H](CN(C)C(=O)C2CCCCC2)[C@H](C)CN([C@@H](C)CO)C(=O)c2cc(NS(=O)(=O)c3ccccc3)ccc2O1 | inactive | inactive | inactive |
| CC(=O)N[C@H]1CC[C@@H](CCNC(=O)C2CC2)O[C@H]1CO | inactive | inactive | inactive |
| NCC(=O)CCC(=O)O | inactive | inactive | inactive |
| C[C@H](CO)N1C[C@H](C)[C@H](CN(C)C(=O)Nc2cccc3ccccc23)Oc2ccc(NS(=O)(=O)c3ccc(Cl)cc3)cc2CC1=O | inactive | inactive | inactive |
| COCC#Cc1ccc([C@@H]2[C@H](CO)N3C(=O)CN(C(=O)CN4CCOCC4)C[C@@H]23)cc1 | inactive | inactive | inactive |
| CN(C)CCO[C@@H]1C[C@@H]2CN(S(=O)(=O)c3cn(C)cn3)CCN2C1 | inactive | inactive | inactive |
| C[C@@H]1CN([C@@H](C)CO)C(=O)Cc2cc(NS(C)(=O)=O)ccc2O[C@H]1CN(C)S(=O)(=O)c1cn(C)cn1 | inactive | inactive | inactive |
| COc1ccc(NC(=O)Nc2ccc3c(c2)C(=O)N([C@H](C)CO)C[C@@H](C)[C@@H](CN(C)Cc2ccc(-c4ccccc4)cc2)O3)cc1 | inactive | active | inactive |
| Cc1ccc(S(=O)(=O)N(C)C[C@H]2Oc3ccc(NS(=O)(=O)c4ccccc4)cc3CC(=O)N([C@H](C)CO)C[C@H]2C)cc1 | inactive | inactive | inactive |
| c1ccc(-n2cncn2)c(Cn2cnnc2)c1 | inactive | inactive | inactive |
| C[C@@H]1CN([C@@H](C)CO)S(=O)(=O)c2ccc(C3=CCCC3)cc2O[C@H]1CN(C)C(=O)c1cnccn1 | inactive | inactive | inactive |
| C[C@H]1CN([C@@H](C)CO)C(=O)CCCn2nncc2CO[C@@H]1CN(C)Cc1ccc(C(=O)Nc2ccccc2N)cc1 | inactive | inactive | inactive |
| Cc1noc(C)c1NC(=O)Nc1ccc2c(c1)C(=O)N([C@@H](C)CO)C[C@H](C)[C@H](CN(C)Cc1ccc(Cl)c(Cl)c1)O2 | inactive | inactive | inactive |
| NNC(=O)CNC(=O)c1ccccc1 | inactive | inactive | inactive |
| O=C(C[C@H]1C[C@H]2c3cc(NS(=O)(=O)c4ccccc4)ccc3O[C@H]2[C@@H](CO)O1)NC1CCCCC1 | inactive | inactive | inactive |
| NC(=O)c1ccccc1C(N)=O | inactive | inactive | inactive |
| C[C@@H]1CCCCO[C@@H](CN(C)C(=O)c2ccccc2)[C@@H](C)CN([C@@H](C)CO)C(=O)c2cc(NC(=O)Cc3ccccc3)ccc2O1 | inactive | inactive | inactive |
| COc1ccc(NC(=O)N(C)C[C@@H]2OCCCC[C@@H](C)Oc3ccc(NC(=O)NC(C)C)cc3C(=O)N([C@@H](C)CO)C[C@H]2C)cc1 | inactive | inactive | inactive |
| O=C(C[C@@H]1C=C[C@H](NC(=O)CN2CCOCC2)[C@H](CO)O1)NCCc1ccncc1 | inactive | inactive | inactive |
| COc1ccc(C#Cc2ccc3c(c2)[C@]2(C(=O)N3)[C@H](c3ccccc3OCCO)N3[C@H](c4ccccc4)[C@H](c4ccccc4)OC(=O)[C@H]3[C@@H]2C(=O)NC[C@H](O)c2ccccc2)cc1 | inactive | active | inactive |
| COc1ccc(S(=O)(=O)Nc2ccc3c(c2)C(=O)N([C@@H](C)CO)C[C@H](C)[C@H](CN(C)C(=O)CCC(F)(F)F)OCCCC[C@H](C)O3)cc1 | inactive | inactive | inactive |
| NNC(=O)COc1ccccc1 | inactive | inactive | inactive |
| C[C@@H]1CN([C@H](C)CO)C(=O)c2cccc(NS(=O)(=O)c3ccccc3)c2O[C@@H]1CN(C)S(C)(=O)=O | inactive | inactive | inactive |
| C[C@@H]1CCCCO[C@H](CN(C)C(=O)Nc2cccc3ccccc23)[C@H](C)CN([C@@H](C)CO)C(=O)c2cc(NS(=O)(=O)c3ccc(F)cc3)ccc2O1 | inactive | active | inactive |
| COc1ccc(S(=O)(=O)N(C)C[C@H]2Oc3ccc(NC(=O)c4ccncc4)cc3CC(=O)N([C@H](C)CO)C[C@@H]2C)cc1 | inactive | inactive | inactive |
| C[C@@H]1CCCCO[C@@H](CN(C)S(=O)(=O)c2ccc(Cl)cc2)[C@H](C)CN([C@@H](C)CO)C(=O)c2cc(NC(=O)Nc3ccccc3)ccc2O1 | inactive | inactive | inactive |
